Results as given in PMC12820563, “FoxP3 forms a head-to-head dimer in vivo and stabilizes its multimerization on adjacent microsatellites”.
This is one part of the list.

target: T1, MBP-FoxP1dN (Mus musculus, UniProt P58462 326-579); assay: PD-seq (MBP pull-down with sequencing); 20 mM Tris-HCl pH 7.5, 100 mM NaCl, 1.5 mM MgCl2, 0.4 uM protein, 0.1 uM dsDNA library, 30 min, room temperature, amylose pull-down; high values mean tight binding; settings: protein: recombinant; tags: His6-MBP; chain copies: 2; dsDNA, one strand shown
T1 sequence: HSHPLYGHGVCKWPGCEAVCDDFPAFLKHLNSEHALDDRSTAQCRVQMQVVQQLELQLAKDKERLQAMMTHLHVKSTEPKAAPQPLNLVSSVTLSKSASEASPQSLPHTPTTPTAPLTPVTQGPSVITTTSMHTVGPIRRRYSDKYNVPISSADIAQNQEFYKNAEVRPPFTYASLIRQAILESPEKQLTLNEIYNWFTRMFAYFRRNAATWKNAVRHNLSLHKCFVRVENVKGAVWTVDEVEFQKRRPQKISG
How it was run: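 Binding is given as reads-per-million enrichment, pull-down over input, with replicates pooled. The bait was an N-terminus-lacking mouse FoxP3 or FoxP1 fragment with a His6-MBP tag, expressed in E. coli and used at 0.4 µM with 0.1 µM Klenow-filled degenerate double-stranded DNA library for 30 min at room temperature in Tris pH 7.5 buffer with NaCl and MgCl2. Amylose resin pull-down with three washes was followed by proteinase K release, PCR barcoding and Illumina sequencing.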

Sequence	binding signal
GATGATTGTTCTCCCAGCTGATGAATTAGGACACTCGAGTAAACAAATTTTCCTAATCTTTCTGTTCAAGCGCCATCTAC	0.909 RPM ratio (pull-down/input)
GATGATTGTTCTCCCAGCTGATGAATTAGATGCTTCGAGTAAACAAATTTTCCTAATCTTTCTGTTCAAGCGCCATCTAC	1.23 RPM ratio (pull-down/input)
GATGATTGTTCTCCCAGCTGATGAATTGGCCATCTCGAGTAAACAAATTTTCCTAATCTTTCTGTTCAAGCGCCATCTAC	0.827 RPM ratio (pull-down/input)
GATGATTGTTCTCCCAGCTGATGAATTAAATTCGTCGAGTAAACAAATTTTCCTAATCTTTCTGTTCAAGCGCCATCTAC	0.908 RPM ratio (pull-down/input)
GATGATTGTTCTCCCAGCTGATGAATTACCCGGTTCGAGTAAACAAATTTTCCTAATCTTTCTGTTCAAGCGCCATCTAC	0.848 RPM ratio (pull-down/input)
GATGATTGTTCTCCCAGCTGATGAATTGCAATGGTCGAGTAAACAAATTTTCCTAATCTTTCTGTTCAAGCGCCATCTAC	1.03 RPM ratio (pull-down/input)
GATGATTGTTCTCCCAGCTGATGAATTTTATTAATCGAGTAAACAAATTTTCCTAATCTTTCTGTTCAAGCGCCATCTAC	1.07 RPM ratio (pull-down/input)
GATGATTGTTCTCCCAGCTGATGAATTAGAGCACTCGAGTAAACAAATTTTCCTAATCTTTCTGTTCAAGCGCCATCTAC	0.84 RPM ratio (pull-down/input)
GATGATTGTTCTCCCAGCTGATGAATTAACAAAATCGAGTAAACAAATTTTCCTAATCTTTCTGTTCAAGCGCCATCTAC	1.45 RPM ratio (pull-down/input)
GATGATTGTTCTCCCAGCTGATGAATTCATCAAGTCGAGTAAACAAATTTTCCTAATCTTTCTGTTCAAGCGCCATCTAC	0.798 RPM ratio (pull-down/input)
GATGATTGTTCTCCCAGCTGATGAATTATGCAGATCGAGTAAACAAATTTTCCTAATCTTTCTGTTCAAGCGCCATCTAC	1.04 RPM ratio (pull-down/input)
GATGATTGTTCTCCCAGCTGATGAATTTTTGTCCTCGAGTAAACAAATTTTCCTAATCTTTCTGTTCAAGCGCCATCTAC	1.02 RPM ratio (pull-down/input)
GATGATTGTTCTCCCAGCTGATGAATTTGGCTTGTCGAGTAAACAAATTTTCCTAATCTTTCTGTTCAAGCGCCATCTAC	0.962 RPM ratio (pull-down/input)
GATGATTGTTCTCCCAGCTGATGAATTGAATCGATCGAGTAAACAAATTTTCCTAATCTTTCTGTTCAAGCGCCATCTAC	0.854 RPM ratio (pull-down/input)
GATGATTGTTCTCCCAGCTGATGAATTGACTAGATCGAGTAAACAAATTTTCCTAATCTTTCTGTTCAAGCGCCATCTAC	0.992 RPM ratio (pull-down/input)
GATGATTGTTCTCCCAGCTGATGAATTTGCGGTCTCGAGTAAACAAATTTTCCTAATCTTTCTGTTCAAGCGCCATCTAC	0.907 RPM ratio (pull-down/input)

Sequence	binding signal
GATGATTGTTCTCCCAGCTGATGAATTAACCACGTCGAGTAAACAAATTTTCCTAATCTTTCTGTTCAAGCGCCATCTAC	0.884 RPM ratio (pull-down/input)
GATGATTGTTCTCCCAGCTGATGAATTATTAAGTTCGAGTAAACAAATTTTCCTAATCTTTCTGTTCAAGCGCCATCTAC	1.15 RPM ratio (pull-down/input)
GATGATTGTTCTCCCAGCTGATGAATTTAGTCATTCGAGTAAACAAATTTTCCTAATCTTTCTGTTCAAGCGCCATCTAC	1.02 RPM ratio (pull-down/input)
GATGATTGTTCTCCCAGCTGATGAATTCCATCACTCGAGTAAACAAATTTTCCTAATCTTTCTGTTCAAGCGCCATCTAC	0.855 RPM ratio (pull-down/input)
GATGATTGTTCTCCCAGCTGATGAATTGGAGGATTCGAGTAAACAAATTTTCCTAATCTTTCTGTTCAAGCGCCATCTAC	0.842 RPM ratio (pull-down/input)
GATGATTGTTCTCCCAGCTGATGAATTATGACAGTCGAGTAAACAAATTTTCCTAATCTTTCTGTTCAAGCGCCATCTAC	0.946 RPM ratio (pull-down/input)
GATGATTGTTCTCCCAGCTGATGAATTTGGATGTTCGAGTAAACAAATTTTCCTAATCTTTCTGTTCAAGCGCCATCTAC	0.997 RPM ratio (pull-down/input)
GATGATTGTTCTCCCAGCTGATGAATTTCTAAGATCGAGTAAACAAATTTTCCTAATCTTTCTGTTCAAGCGCCATCTAC	0.869 RPM ratio (pull-down/input)
GATGATTGTTCTCCCAGCTGATGAATTTGTTCTTTCGAGTAAACAAATTTTCCTAATCTTTCTGTTCAAGCGCCATCTAC	1.3 RPM ratio (pull-down/input)
GATGATTGTTCTCCCAGCTGATGAATTTATTACCTCGAGTAAACAAATTTTCCTAATCTTTCTGTTCAAGCGCCATCTAC	1.2 RPM ratio (pull-down/input)
GATGATTGTTCTCCCAGCTGATGAATTAAAGTCGTCGAGTAAACAAATTTTCCTAATCTTTCTGTTCAAGCGCCATCTAC	0.861 RPM ratio (pull-down/input)
GATGATTGTTCTCCCAGCTGATGAATTTACAATATCGAGTAAACAAATTTTCCTAATCTTTCTGTTCAAGCGCCATCTAC	1.63 RPM ratio (pull-down/input)
GATGATTGTTCTCCCAGCTGATGAATTACTGGTATCGAGTAAACAAATTTTCCTAATCTTTCTGTTCAAGCGCCATCTAC	1.13 RPM ratio (pull-down/input)
GATGATTGTTCTCCCAGCTGATGAATTCAGGCGGTCGAGTAAACAAATTTTCCTAATCTTTCTGTTCAAGCGCCATCTAC	0.783 RPM ratio (pull-down/input)
GATGATTGTTCTCCCAGCTGATGAATTACAAAACTCGAGTAAACAAATTTTCCTAATCTTTCTGTTCAAGCGCCATCTAC	1.24 RPM ratio (pull-down/input)
GATGATTGTTCTCCCAGCTGATGAATTGCTAGATTCGAGTAAACAAATTTTCCTAATCTTTCTGTTCAAGCGCCATCTAC	1.09 RPM ratio (pull-down/input)
